# From PubChem BioAssay AID360 (National Center for Advancing Translational Sciences (NCATS), 2006)
# The campaign covered roughly 48,000 compounds. About 550 (1.1%) were called active. Roughly 4% stayed inconclusive and do not appear here. No stated cut-off is given here; in the data, active means potency below about 15 µM; inconclusive means mostly about 16 µM to 33 µM; inactive means weaker than that. The list shows a part of the results.
# Target: Lysosomal acid glucosylceramidase (Homo sapiens) (UniProt P04062)
# Chain of UniProt P04062 (P04062 whole entry, looked up): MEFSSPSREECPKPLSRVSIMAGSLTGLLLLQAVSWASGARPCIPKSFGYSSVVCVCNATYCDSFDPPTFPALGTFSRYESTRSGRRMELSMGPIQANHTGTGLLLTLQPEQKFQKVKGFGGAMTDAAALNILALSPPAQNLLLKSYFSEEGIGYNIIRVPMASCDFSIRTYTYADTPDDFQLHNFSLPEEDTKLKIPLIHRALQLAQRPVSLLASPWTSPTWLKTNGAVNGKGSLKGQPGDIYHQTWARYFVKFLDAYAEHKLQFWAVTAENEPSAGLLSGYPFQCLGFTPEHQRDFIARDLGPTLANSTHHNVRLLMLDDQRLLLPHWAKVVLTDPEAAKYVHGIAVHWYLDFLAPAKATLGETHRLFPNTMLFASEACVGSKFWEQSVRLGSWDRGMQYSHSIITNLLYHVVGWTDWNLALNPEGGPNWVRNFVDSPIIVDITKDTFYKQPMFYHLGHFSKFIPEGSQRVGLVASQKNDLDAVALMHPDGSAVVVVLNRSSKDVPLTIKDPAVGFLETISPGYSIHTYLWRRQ
# Assay: Glucocerebrosidase;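 further: the screen sought inhibitors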
# Settings: purified enzyme, resorufin glucoside fluorescence (screen aimed at inhibitors), 20 min
# How it was run: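 Wild-type enzyme at 0.2 nM final in 50mM citric acid/KH2PO4, 10mM sodium taurocholate, 0.01% tween-20, pH 5.9, with resorufin beta-D-glucopyranoside at 30 uM final. Compounds titrated, 20 min at RT, red fluorescence read; AC50 from titration.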
# Potency means the concentration at half of the fitted maximal effect.
row,SMILES,Potency
1,COC(=O)c1c(C)n(Cc2ccc3c(c2)OCO3)c2ccc(O)cc12,inactive: > 76.9 µM
2,CCOC(=O)C1=C(N)Oc2cc(C)oc(=O)c2C12C(=O)N1c3c(cc(OC)cc32)C(C)=CC1(C)C (stereo not given),inactive: > 76.9 µM
3,Cc1ccc2c(c1)CC1(CN2C)C(=O)NC(=O)N(C(C)C)C1=O (stereo not given),inactive: > 76.9 µM
4,CCOC(=O)C1=C(C)OC(N)=C(C#N)C12C(=O)Nc1ccc(C)cc12 (stereo not given),inactive: > 76.9 µM
5,CN1CCN(c2ccc(NC(=O)C(C)(C)C)cc2)CC1,inactive: > 76.9 µM
6,C=Cn1ccnc1P(=S)(c1c(C)nn(-c2ccccc2)c1C)c1nccn1C=C,inactive: > 76.9 µM
7,CC1(C)C2CC=C(CN3CCC(O)CC3)C1C2 (stereo not given),inactive: > 76.9 µM
8,C=CCn1c(O)c(C(CC)=Nc2ccccc2NC(C)=O)c(=O)[nH]c1=O,inactive: > 76.9 µM
9,CCC(C)N1C(=O)NC(=O)C2(Cc3c(ccc4ccccc34)N(C)C2)C1=O (stereo not given),inactive: > 76.9 µM
10,Cc1cc(S(=O)(=O)NC(C)C)ccc1OCC(=O)N1CCN(Cc2ccc3c(c2)OCO3)CC1,inactive: > 76.9 µM
11,CC(=NC1CCN(Cc2ccccc2)CC1)c1c(O)n(C)c(=O)n(C)c1=O,inactive: > 76.9 µM
12,Cc1cccc(CS(=O)(=O)Cc2ccc(C(=O)N3CCC4(CC3)OCCO4)o2)c1,inactive: > 76.9 µM
13,Cc1ccc(-n2c(O)c(C=Nc3ccccc3N)c(=O)[nH]c2=O)cc1C,inactive: > 76.9 µM
14,O=C(Cn1cnc2sc3c(c2c1=O)CCCC3)NCCC(=O)N1CCC2(CC1)OCCO2,inactive: > 76.9 µM
15,CCCCC(=O)C1C(=O)NC(=O)NC1=O,inactive: > 76.9 µM
16,CC(=NCc1ccco1)c1c(O)n(Cc2ccccc2)c(=O)[nH]c1=O,inactive: > 76.9 µM
17,COc1ccc(CCNCc2ccccn2)cc1OC,inactive: > 76.9 µM
18,CCOP(=O)(C#CC(C)(C)C)C1(O)CCCCC1 (stereo not given),inactive: > 76.9 µM
19,N=c1sc2c(n1Cc1ccccc1)CCCC2,inactive: > 76.9 µM
20,CN1CCN(CC(=O)Nc2ccc(Cl)cc2C(=O)c2ccccc2)CC1,inactive: > 76.9 µM
21,CCn1nc(-c2cccs2)nc2c(=O)n(C)c(=O)nc1-2,inactive: > 76.9 µM
22,COC(=O)CCCNC(=O)CN1CC(c2ccccc2)CC1=O (stereo not given),inactive: > 76.9 µM
23,CN(C)C(=O)Oc1ccc(OC(=O)c2ccccc2)cc1,inactive: > 76.9 µM

row,SMILES,Potency
1,CC(=O)Nc1ccc(OC(=O)N(C)C)cc1,inactive: > 76.9 µM
2,COCc1c(CN)cnc(C)c1N,inactive: > 76.9 µM
3,O=P(C(c1ccc2c(c1)OCO2)N1CCOCC1)(N1CCOCC1)N1CCOCC1 (stereo not given),inactive: > 76.9 µM
4,O=C(Cn1nc(Cc2cccnc2)c2ccccc2c1=O)N1CCC2(CC1)OCCO2,inactive: > 76.9 µM
5,NC(=O)Nc1cccc(C(F)(F)F)c1,inactive: > 76.9 µM
6,O=C1CC(N2CCC(n3c(=O)[nH]c4ccccc43)CC2)C(=O)N1Cc1ccccc1 (stereo not given),inactive: > 76.9 µM
7,Cc1cccc(-n2c(C)nc3cc(C(=O)N4CCC5(CC4)OCCO5)ccc32)c1,inactive: > 76.9 µM
8,Oc1ccc(C2NCc3ccccc3-n3cccc32)cc1Cl (stereo not given),inactive: > 76.9 µM
9,CC(=O)N1CC(=O)Nc2ccc(Cl)cc2C1c1ccc(F)cc1 (stereo not given),inactive: > 76.9 µM
10,CC(=NCCN1CCOCC1)c1c(O)n(-c2ccccc2C)c(=O)[nH]c1=O,inactive: > 76.9 µM
11,O=c1cccc2n1CC1CC2CN(Cc2cccc(Cl)c2Cl)C1 (stereo not given),inactive: > 76.9 µM
12,CCN(CC)C(=O)c1ccc(NC(=O)c2cc(-n3cnnc3)ccc2Cl)cc1,inactive: > 76.9 µM
13,COc1ncccc1C(=O)NCC(CC(=O)O)c1ccccc1 (stereo not given),inactive: > 76.9 µM
14,COc1ccc(Nc2ncc(C(=O)N3CCC4(CC3)OCCO4)c3ccccc23)cc1,inactive: > 76.9 µM
15,CC(=O)Nc1ccc(OC(=O)N2CCCCC2)cc1,inactive: > 76.9 µM
16,CSC1=NP(=S)(SC)N2CCCC2=C1C#N (stereo not given),inactive: > 76.9 µM
17,C(#CCN1CCOCC1)COCc1ccccc1,inactive: > 76.9 µM
18,CN1CCN(Cc2nc3ccccc3n2C)CC1,inactive: > 76.9 µM
19,CN1CCN(c2ccc(C(N)=O)cc2N)CC1,inactive: > 76.9 µM
20,COC(=O)CSC1=NP(=S)(SCC(=O)OC)N2CCCC2=C1C#N (stereo not given),inactive: > 76.9 µM
21,COc1ccccc1CN1CCCCC1c1cccnc1 (stereo not given),inactive: > 76.9 µM
22,c1ccc2c(CCNCc3ccc4c(c3)OCO4)c[nH]c2c1,inactive: > 76.9 µM
